According to the antibiotic and cytotoxicity screens of Wong et al. (2023):
This is one part of the list.

These compounds were tested on HepG2 (assay: cytotoxicity call (relative viability < 0.9)). Conditions: 10 µM.

Row | Compound | cytotoxicity call
1 | CC#CC(=O)NS(=O)(=O)c1ccccc1 | inactive
2 | Cc1cc(C(=O)Nc2cccc3c2O[C@@H](CN(C)S(=O)(=O)c2ccc(F)cc2)[C@@H](C)CN([C@@H](C)CO)C3=O)n(C)n1 | inactive
3 | Cc1ccc(S(=O)(=O)N(C)C[C@@H]2Oc3ccc(NC(=O)C4CC4)cc3CC(=O)N([C@@H](C)CO)C[C@@H]2C)cc1 | active
4 | CO[C@H](CN(C)C(=O)c1ccccc1F)[C@@H](C)CN([C@H](C)CO)S(=O)(=O)c1ccc(Cl)cc1 | inactive
5 | O=C(CN1CCOCC1)N[C@H]1CC[C@@H](CCNC(=O)Nc2cc(F)ccc2F)O[C@@H]1CO | inactive
6 | C[C@@H]1CN([C@@H](C)CO)C(=O)c2cc(NS(=O)(=O)c3cccs3)ccc2O[C@@H](C)CCCCO[C@@H]1CN(C)C(=O)Nc1ccc(F)cc1 | inactive
7 | NC(=O)c1cccnc1N1CCN(C(=O)[C@@H]2CC(=O)N(C3CC3)C2)CC1 | inactive
8 | COc1ccc(NC(=O)Nc2ccc3c(c2)C(=O)N([C@H](C)CO)C[C@@H](C)[C@H](CN(C)S(=O)(=O)c2cn(C)cn2)O3)cc1 | inactive
9 | O=C(NC1Cc2ccccc2C1)[C@H]1[C@H](CO)[C@H]2Cn3c(cccc3=O)[C@H]2N1C(=O)c1cnccn1 | inactive
10 | O=C(C[C@H]1CC[C@@H]2[C@H](COC[C@H](O)CN2C(=O)Nc2ccc(Cl)c(Cl)c2)O1)NCc1ccc(Cl)c(Cl)c1 | active
11 | C[C@@H]1CCCCO[C@@H](CN(C)C(=O)Nc2ccc(F)cc2)[C@H](C)CN([C@@H](C)CO)C(=O)c2cc(NC(=O)Nc3ccc4c(c3)OCO4)ccc2O1 | inactive
12 | Cc1ccc(C(=CCN2CCCC2)c2ccccn2)cc1.Cl | inactive
13 | C[C@@H]1CN([C@@H](C)CO)C(=O)c2cc(NC(=O)CCC(F)(F)F)ccc2O[C@H]1CN(C)Cc1ccc(Cl)c(Cl)c1 | active
14 | C=CCNC(=O)[C@H]1[C@@H]2C(=O)O[C@@H](c3ccccc3)[C@@H](c3ccccc3)N2[C@@H](c2ccc(O)cc2)[C@]12C(=O)N(C(=O)OCCOC)c1ccc(C#CC3=CCCCC3)cc12 | inactive
15 | COc1ccc(S(=O)(=O)Nc2cccc3c2O[C@@H](CN(C)CC2CC2)[C@H](C)CN([C@H](C)CO)C3=O)cc1 | inactive
16 | Cn1cc(CN2CCC3(CC2)CNC(=O)CO3)cn1 | inactive
17 | C[C@@H]1CN([C@@H](C)CO)C(=O)c2cc(NC(=O)Nc3cccc4ccccc34)ccc2O[C@H]1CN(C)S(=O)(=O)c1ccccc1 | inactive
18 | C[C@](N)(Cc1ccc(O)c(O)c1)C(=O)O | active
19 | COc1ccc(S(=O)(=O)Nc2ccc3c(c2)C(=O)N([C@@H](C)CO)C[C@@H](C)[C@H](CN(C)Cc2ccncc2)O3)cc1 | inactive
20 | C[C@@H]1CN([C@H](C)CO)C(=O)CCCn2cc(nn2)CO[C@@H]1CN(C)C(=O)CCCN(C)C | inactive

Row | Compound | cytotoxicity call
21 | C[C@@H]1CN([C@H](C)CO)C(=O)c2cc(NC(=O)Nc3cccc4ccccc34)ccc2O[C@@H](C)CCCCO[C@H]1CN(C)S(=O)(=O)c1cccs1 | inactive
22 | COCCOC(=O)N1C(=O)[C@@]2(c3cc(C#CCNC(N)=O)ccc31)[C@H](C(=O)N1CCCCCCC1)[C@H]1C(=O)O[C@H](c3ccccc3)[C@H](c3ccccc3)N1[C@@H]2c1ccccc1OCCO | inactive
23 | C[C@H](CO)N1C[C@H](C)[C@@H](CN(C)S(=O)(=O)c2ccccc2)Oc2ccc(NC(=O)C3CC3)cc2CC1=O | inactive
24 | C[C@H](NC(=O)C(C)(C)Oc1ccc(C(F)(F)F)cn1)[C@@H](Cc1ccc(Cl)cc1)c1cccc(C#N)c1 | inactive
25 | CCC1=NCCO1 | inactive
26 | CN(C)CCCNC(=O)C[C@H]1CC[C@@H]2[C@H](COC[C@@H](O)CN2S(=O)(=O)c2ccc(F)cc2)O1 | inactive
27 | Cc1noc(C)c1NC(=O)Nc1ccc2c(c1)C(=O)N([C@@H](C)CO)C[C@@H](C)[C@H](CN(C)C(=O)Nc1ccc(C(F)(F)F)cc1)OCCCC[C@@H](C)O2 | inactive
28 | Cc1cc(C(=O)Nc2cccc3c2O[C@@H](CN(C)Cc2ccc(Oc4ccccc4)cc2)[C@H](C)CN([C@H](C)CO)C3=O)n(C)n1 | inactive
29 | O=C(C[C@H]1C=C[C@@H](NC(=O)Cc2ccccn2)[C@@H](CO)O1)NCCCN1CCOCC1 | inactive
30 | CC(C)CC#Cc1cnc2c(c1)C(=O)N([C@@H](C)CO)C[C@H](C)[C@H](CN(C)C(=O)c1ccc3c(c1)OCO3)O2 | inactive
31 | COc1ccc(S(=O)(=O)Nc2ccc3c(c2)CC(=O)N([C@H](C)CO)C[C@@H](C)[C@H](CN(C)Cc2ccc(-c4ccccc4)cc2)O3)cc1 | active
32 | Cc1ccc(S(=O)(=O)Nc2ccc3c(c2)C(=O)N([C@H](C)CO)C[C@H](C)[C@H](CN(C)C(=O)NC2CCCCC2)OCCCC[C@@H](C)O3)cc1 | inactive
33 | C[C@@H]1CCCCO[C@@H](CN(C)C(=O)NC2CCCCC2)[C@H](C)CN([C@@H](C)CO)C(=O)c2cc(NC(=O)Nc3ccccc3)ccc2O1 | inactive
34 | C[C@@H]1CN([C@@H](C)CO)C(=O)c2cc(NC(=O)Nc3ccccc3)ccc2O[C@@H]1CN(C)Cc1ccc(C(=O)Nc2ccccc2N)cc1 | active
35 | C[C@@H]1CN([C@@H](C)CO)C(=O)c2cc(NC(=O)Cc3cn(C)c4ccccc34)ccc2O[C@H]1CN(C)Cc1ccc(C(F)(F)F)cc1 | inactive
36 | C[C@@H]1CN([C@@H](C)CO)C(=O)Cc2cc(NC(=O)NC3CCCCC3)ccc2O[C@@H]1CN(C)Cc1ccc(C(=O)Nc2ccccc2N)cc1 | inactive
37 | COc1ccc(CN(C)C[C@@H]2Oc3ccc(NC(=O)CCN4CCOCC4)cc3C(=O)N([C@@H](C)CO)C[C@@H]2C)cc1 | inactive
38 | COc1ccccc1C#Cc1ccc2c(c1)O[C@@H](CN(C)Cc1cncnc1)[C@H](C)CN([C@@H](C)CO)S2(=O)=O | inactive
39 | OC1(c2ccc(Cl)c(C(F)(F)F)c2)CCN(CCCC(c2ccc(F)cc2)c2ccc(F)cc2)CC1 | active
